In PMC4336329 (PLoS ONE, 2015):
Hit rate of the full screen: of about 310,000 compounds, about 2,200 (0.71%) showed an effect of 50% or more. Effects have a minus sign here. The list shows a part of the results.

Molecular target: human ether-à-go-go-related gene (hERG) potassium channel (human, UniProt Q12809)
Experiment: primary screen, population patch clamp on CHO cells stably expressing hERG

Sequence of human ether-à-go-go-related gene (hERG) potassium channel (Q12809 whole entry, looked up): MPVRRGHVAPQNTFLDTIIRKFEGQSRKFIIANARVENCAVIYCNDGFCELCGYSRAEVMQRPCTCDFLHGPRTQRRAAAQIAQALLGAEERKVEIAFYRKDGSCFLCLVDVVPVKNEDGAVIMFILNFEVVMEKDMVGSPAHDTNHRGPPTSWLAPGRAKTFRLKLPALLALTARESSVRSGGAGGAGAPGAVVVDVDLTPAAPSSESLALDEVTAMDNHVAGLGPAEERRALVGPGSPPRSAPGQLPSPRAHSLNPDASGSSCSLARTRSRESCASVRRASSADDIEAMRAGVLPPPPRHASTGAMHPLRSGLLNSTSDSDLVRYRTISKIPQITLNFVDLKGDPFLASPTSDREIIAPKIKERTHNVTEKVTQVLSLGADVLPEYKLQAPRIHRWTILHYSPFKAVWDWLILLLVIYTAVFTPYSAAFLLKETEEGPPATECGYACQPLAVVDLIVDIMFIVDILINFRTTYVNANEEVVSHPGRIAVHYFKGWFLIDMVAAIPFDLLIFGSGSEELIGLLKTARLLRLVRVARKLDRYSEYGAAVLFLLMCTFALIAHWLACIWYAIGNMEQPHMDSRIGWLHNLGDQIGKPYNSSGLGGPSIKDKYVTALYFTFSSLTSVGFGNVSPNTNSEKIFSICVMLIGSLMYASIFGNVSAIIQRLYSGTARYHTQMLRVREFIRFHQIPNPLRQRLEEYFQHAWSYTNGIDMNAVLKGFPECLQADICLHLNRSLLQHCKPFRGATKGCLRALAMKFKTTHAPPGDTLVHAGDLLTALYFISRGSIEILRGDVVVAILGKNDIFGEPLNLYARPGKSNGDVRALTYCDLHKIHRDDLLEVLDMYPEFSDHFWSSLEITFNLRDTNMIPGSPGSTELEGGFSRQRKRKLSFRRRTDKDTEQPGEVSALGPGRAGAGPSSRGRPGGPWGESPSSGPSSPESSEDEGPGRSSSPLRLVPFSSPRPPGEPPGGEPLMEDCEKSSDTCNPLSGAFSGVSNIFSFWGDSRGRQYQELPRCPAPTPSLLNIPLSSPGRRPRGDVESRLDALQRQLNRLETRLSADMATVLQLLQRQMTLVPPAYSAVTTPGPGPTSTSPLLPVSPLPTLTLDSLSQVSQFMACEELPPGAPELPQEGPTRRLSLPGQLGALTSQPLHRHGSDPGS

| SMILES | hERG current change (%, negative = inhibition) at 1uM |
| --- | --- |
| O=C(Cn1c(=O)oc2cc(S(=O)(=O)N3CCCC3)ccc21)N1CCN(c2ccccc2)CC1 | 7.36% |
| Cc1cccc(N(C)C(=O)CCS(=O)(=O)c2cccc3nonc23)c1 | 0.162% |
| CC(C)Cn1c(=O)c2ccccc2n2c(CCC(=O)NC3CCN(Cc4ccccc4)CC3)nnc12 | 2.71% |
| Cc1cccc(N2C(=O)CC(N3CCOCC3)C2=O)c1 (centres unmarked) | 10.9% |
| COc1ccc(NCc2ccsc2)cc1 | 14.3% |
| COc1ccc(NC(=O)CN(C)C(=O)C(CCSC)NC(=O)c2ccccc2)cc1 (centres unmarked) | 13.8% |
| CNC(=O)NC1CCCc2ccccc21 (centres unmarked) | 10.3% |
| Cc1cc(NC(=O)c2cncc(Br)c2)no1 | 14.6% |
| CCC(C)N1C(=O)CN(C2CCCCCC2)C(=O)C1c1ccccc1F (centres unmarked) | 17.4% |
| COc1ccc(NC(=O)Cn2nnc(-c3ccccc3N)n2)cc1OC | 7.36% |
| Cc1cc(C)cc(NC(=O)c2ccc(CNc3c(N4CCOCC4)c(=O)c3=O)cc2)c1 | 10.5% |
| O=C(CC1Oc2ccc(Cl)cc2NC1=O)NC1CCCCCC1 (centres unmarked) | 6.95% |
| CCN1CCN(c2nc(Nc3ccccc3)nc(N)c2[N+](=O)[O-])CC1 | -13.3% |
| CC(C)(C)c1cc(CNC2CS(=O)(=O)C[C@@H]2O)cc(C(C)(C)C)c1O (some centres unmarked) | 12.7% |
| COc1cc(Cl)ccc1S(=O)(=O)n1nc(C)cc1C | 11.2% |
| CC(=O)OCC(=O)[C@@]12OC(C)(C)O[C@@H]1C[C@H]1[C@@H]3C[C@H](F)C4=CC(=O)C=C[C@]4(C)[C@@]3(F)[C@@H](O)C[C@@]12C | 14.8% |
| Cc1oc(C)c(C(=O)Nc2ccc(CC(=O)O)cc2)c1C(=O)Nc1ccc(CC(=O)O)cc1 | 11.9% |
| N#CC1=C(Nc2ccccc2)SC=C(c2ccc(F)cc2)N=C1N1CCOCC1 | 2.35% |
| COC(=O)C1=C[C@@H](C(=O)OC)[C@@H]2C3=C(C(=O)[C@@]2(C)NC(=O)c2ccccc2)[C@H](C)C(C(=O)OC)=C(C(=O)OC)[C@@H]3C1 | 13.1% |
| O=C1CCN(Cc2ccccc2)S(=O)(=O)c2c(F)cc(F)cc21 | 5.65% |
| COc1ccccc1/C=C\C=N\n1c(C2CCCCC2)n[nH]c1=S | 5.27% |
| O=C(Nc1nc2c(s1)CCCC2)Oc1ccccc1 | 12.8% |

| SMILES | hERG current change (%, negative = inhibition) at 1uM |
| --- | --- |
| Cc1ccc(NC(=O)CCn2cccc2)cc1 | 18.9% |
| Cc1ccc(C(=O)NC(=S)N2CCN(C(=O)OC(C)(C)C)CC2)cc1Br | 11.7% |
| COc1ccc(/C(O)=C2/C(=O)C(=O)N(c3ncccn3)C2c2ccc(OC)cc2)cc1 (centres unmarked) | 13.6% |
| COC(=O)c1ccc(OC(=O)N2CCOCC2)cc1 | 11.3% |
| Nc1cc(N)cc(C(=O)Nc2ccc3c(c2)C(=O)NC3=O)c1 | 8.22% |
| CCCOCCc1nnc(N)s1 | 16.7% |
| C=C(C)CNC(=S)N/N=C(\C)c1ccc(-n2ccnc2)cc1 | -7.94% |
| O=C(Cc1ccccc1)NCC(=O)OCc1ccccc1F | 12.6% |
| CCSc1nnc(NC(=O)CSc2nnc(C)c(=O)n2N)s1 | 12.9% |
| O=C(NC(Cc1ccc2c(c1)OCO2)C(=O)NC(Cc1ccccc1)C(=O)O)c1ccccc1 (centres unmarked) | 9.34% |
| CC(OC(=O)C1CCN(c2ccc(C(F)(F)F)cn2)CC1)C(=O)NC1CCCCC1C (centres unmarked) | -5.7% |
| CCN1C(=O)/C(=C2\SC(=S)N(c3c(C)n(C)n(-c4ccccc4)c3=O)C2=O)c2ccccc21 | 6.3% |
| N#Cc1ccccc1NC1=CC(=O)CCC1 | 5.61% |
| COc1ccccc1-n1c(SCC(=O)N2CCOCC2)nc2ccccc2c1=O | 12% |
| Cc1ccc(C2=NS(=O)(=O)N(C)C(C(=O)NCc3ccccc3)=C2)cc1 | 9.25% |
| COc1cc(C(O)CNC(C)C)cc(F)c1OC (centres unmarked) | 5.66% |
| Cc1ccsc1/C=C1\SC(=S)N(CC2CCCO2)C1=O (centres unmarked) | -0.84% |
| O=C(/C=C/c1ccco1)Nc1ccc(S(=O)(=O)N2CCOCC2)cc1 | 8.3% |
| COC(=O)COc1cccc(NC(=O)COc2ccccc2)c1 | 13.1% |
| CC(NC(=O)C1CCC(C)(C(=O)O)C1(C)C)c1ccccc1 (centres unmarked) | 13.8% |
| O=C(CSc1ccccn1)Nc1ccc2[nH]c(=O)[nH]c2c1 | 9.65% |
| CC(=O)c1ccc(N=Nc2ccc(N)cc2)cc1 | 11.4% |
